# In all, about 33,000 sequences were measured (“E-score (-0.5 to 0.5)”: median about -0.012, highest 2% from about 0.27 on). This is one part of the list.
# Target: T1, Vhr1 (UniProt P40522)
# T1 sequence: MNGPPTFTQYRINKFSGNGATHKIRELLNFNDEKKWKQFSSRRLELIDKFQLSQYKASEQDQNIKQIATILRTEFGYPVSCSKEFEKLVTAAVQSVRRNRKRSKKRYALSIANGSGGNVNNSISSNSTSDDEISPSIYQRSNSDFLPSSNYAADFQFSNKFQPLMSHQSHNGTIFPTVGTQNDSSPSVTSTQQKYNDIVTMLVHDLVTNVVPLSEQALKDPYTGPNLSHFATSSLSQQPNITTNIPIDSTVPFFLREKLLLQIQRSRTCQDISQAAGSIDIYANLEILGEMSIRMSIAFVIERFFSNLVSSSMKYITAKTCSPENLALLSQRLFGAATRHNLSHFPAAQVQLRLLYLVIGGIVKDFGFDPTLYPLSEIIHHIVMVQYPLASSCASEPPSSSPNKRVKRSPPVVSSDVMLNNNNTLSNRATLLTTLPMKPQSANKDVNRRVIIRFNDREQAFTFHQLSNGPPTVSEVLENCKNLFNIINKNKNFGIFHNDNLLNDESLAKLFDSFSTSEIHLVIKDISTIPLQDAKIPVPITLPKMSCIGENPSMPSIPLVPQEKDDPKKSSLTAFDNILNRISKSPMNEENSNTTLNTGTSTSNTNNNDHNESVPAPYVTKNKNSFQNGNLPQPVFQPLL
# Assay: PBM E-score (8-mer binding enrichment) (E-score (-0.5 to 0.5)); higher = stronger / more preferred TF binding; most listed sequences are background and not binding sites
# Settings: protein concentration: 200 nM; construct: GST-full length
# Method: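 Universal 'all 10-mer' protein binding microarrays (Agilent AMADID 015681) probed with GST-tagged S. cerevisiae TFs (full-length or DBD) made by in vitro transcription/translation (PURExpress), about 100-200 nM. Bound TF was detected with fluorescent anti-GST. Each ungapped 8-mer (which stands for itself and its reverse complement) is scored by the PBM enrichment score (E-score), a modified Wilcoxon-Mann-Whitney statistic from -0.5 to +0.5, computed with the Universal PBM Analysis Suite. Scale: above 0.35 generally sequence-specific binding.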
row,Sequence,PBM E-score
1,TGCAGTAA,-0.0479
2,GTCCGGAA,0.075
3,ACTAGGCA,-0.0562
4,ACAGAGAT,0.106
5,CACGCACG,-0.0948
6,ATTGGGTG,0.213
7,ATTTTGCC,-0.15
8,GACACCAC,0.0753
9,AGATAAAT,-0.101
10,ACGGCAGC,0.188
11,CGTAGTGA,-0.0445
12,ACATACTC,0.101
13,AATGTAGC,-0.0841
14,AGGTCGCA,0.0638
15,AGGAGGGA,-0.101
16,GTTTCAAA,-0.0415
17,ACAACACA,0.228
18,CAACCGAA,-0.0275
19,GCGGGTAC,0.125
20,ACGGTAAG,-0.254
21,AGAATGGC,-0.0486
22,AGGCAACT,0.0155

row,Sequence,PBM E-score
1,TATCCTCA,0.0377
2,AAGGGACC,-0.0468
3,AACGAAAT,-0.161
4,AGTTCGAT,-0.00249
5,AATGGGGG,-0.227
6,AAGAAAGC,-0.174
7,AACTCCGT,0.0655
8,ACAGCCAT,0.0895
9,AATGCGTC,-0.223
10,CGGCTACC,0.145
11,CTGGCTCC,0.0343
12,AGAGCCTC,-0.228
13,ACGGGAAG,-0.199
14,GTTCCTTA,-0.258
15,CAGAGTAA,-0.0282
16,CAGAGATA,0.0147
17,AACTGTAT,0.0105
18,CCTCATAG,-0.128
19,CCAGGAAG,-0.212
20,GCTAGTAC,0.011
21,TCATCGCA,0.153
22,AGAGGCAG,-0.107

row,Sequence,PBM E-score
1,AATAGTGA,-0.0108
2,AGCACGTG,0.0862
3,AGGGAGTG,0.042
4,ACTAGCCC,0.0599
5,AGCGAGTA,0.119
6,CTGAGACC,0.0344
7,GATCTCAA,0.0719
8,ACTGGCAC,-0.113
9,AGTGCCAA,-0.195
10,GGATGGCC,-0.241
11,TATAAATA,-0.00903
12,GGGTTTAC,-0.0429
13,ATACCTAA,0.053
14,ATACGCCG,0.194
15,CATTAGAC,-0.0588
16,GCTCATGA,0.16
17,GAGGGGTA,0.0252
18,AGAGCGAA,-0.0252
19,CCCCGTGA,0.0353
20,CGCAGGTC,-0.0634
21,GAGAATAA,0.0169
22,AAGAAATC,-0.352

row,Sequence,PBM E-score
1,AAAGCACA,-0.0506
2,GGTTACAA,0.125
3,AACGGGCG,-0.0264
4,AATACATA,0.124
5,AACCTGCA,-0.105
6,AAACTAGC,-0.0979
7,GGATAAAC,0.139
8,CTACTCTC,-0.129
9,CCATCGCA,0.116
10,GGCCTATA,-0.231
11,AATTTTAG,-0.319
12,AGTGCGGC,-0.0797
13,ATACGCTC,0.0424
14,ACGAGCAC,0.0949
15,ACCTTCAA,-0.222
16,CCATCTCA,0.184
17,CAAGTCGC,0.132
18,AGAAATTG,-0.0639
19,CACCGTAG,0.0515
20,ACTCCTAT,0.0975
